Consider 42 compounds from ChEMBL document CHEMBL4888484, “Replenishing the malaria drug discovery pipeline: Screening and hit evaluation of the MMV Hit Generation Library 1 (HGL1) against asexual blood stage Plasmodium falciparum ,using a nano luciferase reporter read-out” (2022).

Screen size: about 150,000 compounds; about 540 (0.36%) showed an effect of 50% or more. The list shows a part of the results.

This assay has as its system Plasmodium falciparum. Kind of assay: Primary screen in NF54 nanoGlo assay, in single point, at 2uM, 72h; a lower Z score goes with more inhibition. The assay is classed as functional, Erythrocyte. Particulars: timepoint 72 hour.
On to `Cc1sc(N)nc1-c1ccc(OCCN2CCOCC2)cc1`, for which the % Inhibition (in general, the relative decrease from the control value, in per cent) was -4% and the Z score came to 0.59.

As for `CC(=O)Nc1cn2c(N)nc(C(=O)Nc3ccc(C)cc3)c2nn1`, the “% Inhibition” value is on record as -12% and the Z score is on record as 1.58.

For the compound `Cc1c(Cl)ccc2c(C(=O)N[C@@H]3CCNC3)cc(-c3ccco3)nc12`, the “% Inhibition” value was 4% and the Z score is -0.6.

For the compound `CN(c1ccc(N)cc1)c1ccc(C(N)=O)nn1`, the “% Inhibition” value was -12% and the Z score turned out to be 1.84.

For the compound `Cn1ccc(NC(=O)c2sccc2S(=O)(=O)N2CCCC[C@@H]2CCO)n1`, the “% Inhibition” value came to 0% and the Z score is given as -0.06.

On to `Cc1c(NC(=O)C2CCC2)c(=O)n(-c2ccccc2)n1C`, for which the “% Inhibition” value is reported as 1% and the Z score is -0.14.

On to `COc1cc(Br)ccc1C1NC(=O)C2COCCN21` (centres undefined), for which the “% Inhibition” value is listed as 38% and the Z score is given as -5.16.

`C#CCN(C[C@H]1CCCO1)C(=O)Nc1ccccc1-c1nnnn1C1CC1`: the “% Inhibition” value is -7% and the Z score is reported as 0.99.

As to `CCc1ccc(C2c3c(n[nH]c3O)CC(C)(O)C2C(=O)Nc2ccccc2)cc1` (centres undefined), the “% Inhibition” value is 3% and the Z score is on record as -0.38.

As to `O=S(=O)(N[C@@H]1C=CCCC1)C1COC1`, the “% Inhibition” value was -3% and the Z score is listed as 0.41.

Consider `NC(=O)c1cnc2n1CCN(C(=O)c1nc3c(s1)CCCC3)C2`, for which the “% Inhibition” value is -18% and the Z score was 2.31.

`Cc1ccc(NC(=O)c2ccc(C)c3ccccc23)cc1-c1nc2ncccc2o1`: the “% Inhibition” value was -16% and the Z score stood at 1.87.

With `O=S(=O)(CCC1CCCO1)NC1CCN(CC2CCCC2)C1` (centres undefined), the “% Inhibition” value is given as 1% and the Z score is given as -0.19.

`CC(C)CC(CO)NC(=O)NC1CCOC1c1ccc(F)c(F)c1` (centres undefined): the “% Inhibition” value is listed as -6% and the Z score is given as 0.72.

With `O=C(c1oc(C2CC2)nc1C(F)F)N1CCOc2ccncc21`, the “% Inhibition” value was 3% and the Z score is -0.56.

As to `Cc1cccc(C(=O)NCCC2CCS(=O)(=O)CC2)c1O`, the “% Inhibition” value is on record as -1% and the Z score is on record as 0.12.

Consider `COc1ccc(C(=O)N[C@@H]2CCC[C@@H]2C(=O)NC2CCCC2)cc1`, for which the “% Inhibition” value is reported as -8% and the Z score was 1.07.

Take `COCCN(C)c1nnnn1Cc1cc(Cl)c2c(c1)OCCO2`: the “% Inhibition” value is recorded as -12% and the Z score is 2.31.

For the compound `Cn1c(=O)[nH]cc(C(=O)Nc2ccc(N3CCOCC3)cc2)c1=O`, the “% Inhibition” value is recorded as -3% and the Z score worked out at 0.57.

`CS(=O)(=O)N1CC(CS(=O)(=O)N2CC(C3CC3)C2C2CC2)C1` (centres undefined): the “% Inhibition” value was -2% and the Z score amounted to 0.33.

On to `CCOC(=O)c1c(CN2CCN(c3ncccn3)CC2)nc2ccccc2c1-c1ccccc1`, for which the “% Inhibition” value is -8% and the Z score turned out to be 0.91.

`CN(C)c1cccc(C(=O)N2CCC3(CC2)Nc2ccc(Cl)cc2-n2cccc23)c1`: the “% Inhibition” value is -7% and the Z score was 0.96.

Take `O=C(NCCn1cccn1)[C@H]1CCN(c2ccc(C(F)(F)F)cn2)C1`: the “% Inhibition” value is reported as -1% and the Z score came out at 0.28.

With `O=C(c1cc(F)ccc1Cl)N1CCCN([C@H]2CCN(CC3CC3)C2=O)CC1`, the “% Inhibition” value is given as -13% and the Z score is reported as 1.7.

On to `CCCN1C(=O)c2cc(C(=O)N3CCN(C)CC3)nn2C[C@@]1(C)C(=O)NC1CCCC1`, for which the “% Inhibition” value is 16% and the Z score is reported as -1.84.

For `COc1cc(N/C(=N\S(=O)(=O)Cc2ccccc2)Nc2nc(C)cc(C)n2)cc(OC)c1`, the “% Inhibition” value is -19% and the Z score is recorded as 2.54.

Consider `COc1ccc(-c2cc3n(n2)C[C@@](C)(C(=O)NCc2ccccc2)N(Cc2ccccc2Cl)C3=O)cc1`, for which the “% Inhibition” value was 17% and the Z score is recorded as -2.69.

`CC(C)NC(=O)NCC[C@H]1CCCN(Cc2ccco2)C1`: the “% Inhibition” value is 1% and the Z score was -0.1.

As to `CC(C)CC1OCC2(COC(=O)c3cccnc3)COC(CC(C)C)N12` (centres undefined), the “% Inhibition” value is on record as -24% and the Z score stood at 2.78.

Consider `O=C(CN1CCN(Cc2ccc(F)cc2Cl)C1=O)N1CCN(c2ccccc2)CC1`, for which the “% Inhibition” value was -5% and the Z score is 0.99.

Turning to `Cc1cnc(-n2cnnc2)c(-c2ccc3c(c2)OCCO3)c1`, the “% Inhibition” value worked out at 4% and the Z score is -0.74.

For the compound `O=C(NC[C@@]12CCC[C@H]1N(Cc1ccccc1)C(=O)CC2)c1ncccn1`, the “% Inhibition” value is reported as -6% and the Z score was found to be 0.77.

On to `CC1COCC(C)N1c1nnc(NC(=O)c2ccc(Cl)cc2)s1` (centres undefined), for which the “% Inhibition” value is listed as -4% and the Z score was 0.61.

Consider `O=c1nc(CN2CCC[C@H]2C(F)(F)F)[nH][nH]1`, for which the “% Inhibition” value is reported as -16% and the Z score was found to be 1.39.

Turning to `CN(C)Cc1ccc(O)c(CCc2ccccc2)n1`, the “% Inhibition” value is 64% and the Z score is given as -4.36.

Take `Nc1nc(-c2ccccn2)nn1C(=O)CCC(=O)c1ccc(F)cc1F`: the “% Inhibition” value is -4% and the Z score worked out at 0.48.

In the case of `O=C1OC2(CCN(Cc3cccc4nonc34)CC2)CN1CCOc1ccccc1`, the “% Inhibition” value was -15% and the Z score came to 2.71.

In the case of `Cc1nn(-c2cccc(F)c2)c(N2CCN(C(C)C)CC2)c1CN(C(=O)CCC1CCCC1)C(C)C`, the “% Inhibition” value is -1% and the Z score came out at 0.15.

In the case of `O=C(Nc1ccnn1Cc1cccs1)c1ccc([C@@H]2CCCN2)s1`, the “% Inhibition” value is reported as 5% and the Z score is -0.62.

Turning to `O=C(NCc1cccnn1)N1CCCC1C1CCCO1` (centres undefined), the “% Inhibition” value was -13% and the Z score is listed as 1.17.

Consider `O[C@H]1CCCN(Cc2cnn(CC(F)F)c2)c2ccccc21`, for which the “% Inhibition” value stood at 0% and the Z score stood at 0.02.

Regarding `COCc1ccsc1C(=O)NS(=O)(=O)N1CCc2ccccc2C1`, the “% Inhibition” value was 2% and the Z score is listed as -0.26.
